Assay results published in the supplement of paper PMC8728848.
The list shows a part of the results.

What was measured:
Assay in all cases: glycan array binding signal (z-score within array); higher = stronger binding
Conditions in all cases: glycan notation: IUPAC condensed, linker removed
[1] = target: Fuc(a1-2)Gal
Method in brief: (§1)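 The binding signal is a Z-score computed within each array and averaged over linkers. Arrays of the same protein sequence at different concentrations or buffers were also averaged together. Data originate from 3228 arrays in the Consortium for Functional Glycomics database, kept only where the protein sequence was available.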

[2] = target: Fuc(a1-2)Gal(b1-3)GalNAc
Method in brief: as §1

[3] = target: Fuc(a1-2)Gal(b1-3)GalNAc(b1-3)Gal
Method in brief: as §1

[4] = target: Fuc(a1-2)Gal(b1-3)GalNAc(b1-3)Gal(a1-4)Gal(b1-4)Glc
Method in brief: as §1

[5] = target: Fuc(a1-2)Gal(b1-3)GalNAc(b1-3)Gal(b1-4)Glc
Method in brief: as §1

[6] = target: Fuc(a1-2)Gal(b1-3)GalNAc(b1-4)[Neu5Ac(a2-3)]Gal(b1-4)Glc
Method in brief: as §1

[7] = target: Fuc(a1-2)Gal(b1-3)GlcNAc
Method in brief: as §1

[8] = target: Fuc(a1-2)Gal(b1-3)GlcNAc(b1-3)Gal(b1-4)Glc
Method in brief: as §1

[9] = target: Fuc(a1-2)Gal(b1-3)[Fuc(a1-4)]GlcNAc
Method in brief: as §1

[10] = target: Fuc(a1-2)Gal(b1-4)Glc
Method in brief: as §1

[11] = target: Fuc(a1-2)Gal(b1-4)GlcNAc
Method in brief: as §1

[12] = target: Fuc(a1-2)Gal(b1-4)GlcNAc(b1-3)Gal(b1-4)GlcNAc
Method in brief: as §1

[13] = target: Fuc(a1-2)Gal(b1-4)GlcNAc(b1-3)Gal(b1-4)GlcNAc(b1-3)Gal(b1-4)GlcNAc
Method in brief: as §1

[14] = target: Fuc(a1-2)Gal(b1-4)[Fuc(a1-3)]GalNAc(b1-3)Gal(b1-4)[Fuc(a1-3)]GlcNAc
Method in brief: as §1

[15] = target: Fuc(a1-2)Gal(b1-4)[Fuc(a1-3)]GalNAc(b1-3)Gal(b1-4)[Fuc(a1-3)]GlcNAc(b1-3)Gal(b1-4)[Fuc(a1-3)]GalNAc
Method in brief: as §1

[16] = target: Fuc(a1-2)Gal(b1-4)[Fuc(a1-3)]GlcNAc
Method in brief: as §1

[17] = target: Fuc(a1-2)Gal(b1-4)[Fuc(a1-3)]GlcNAc(b1-3)Gal(b1-4)[Fuc(a1-3)]GlcNAc
Method in brief: as §1

[18] = target: Fuc(a1-2)Gal(b1-4)[Fuc(a1-3)]GlcNAc(b1-3)Gal(b1-4)[Fuc(a1-3)]GlcNAc(b1-3)Gal(b1-4)[Fuc(a1-3)]GlcNAc
Method in brief: as §1

[19] = target: Fuc(a1-2)GlcNAc
Method in brief: as §1

[20] = target: Fuc(a1-2)[Gal(a1-3)]Gal
Method in brief: as §1

[21] = target: Fuc(a1-2)[Gal(a1-3)]Gal(b1-3)GlcNAc
Method in brief: as §1

[22] = target: Fuc(a1-2)[Gal(a1-3)]Gal(b1-4)Glc
Method in brief: as §1

[23] = target: Fuc(a1-2)[Gal(a1-3)]Gal(b1-4)GlcNAc
Method in brief: as §1

[24] = target: Fuc(a1-2)[Gal(a1-3)]Gal(b1-4)[Fuc(a1-3)]GlcNAc
Method in brief: as §1

[25] = target: Fuc(a1-2)[Gal(a1-4)]Gal(b1-4)GalNAc
Method in brief: as §1

[26] = target: Fuc(a1-2)[Gal(a1-4)]Gal(b1-4)GlcNAc
Method in brief: as §1

[27] = target: Fuc(a1-2)[GalNAc(a1-3)]Gal
Method in brief: as §1

[28] = target: Fuc(a1-2)[GalNAc(a1-3)]Gal(b1-3)GlcNAc
Method in brief: as §1

[29] = target: Fuc(a1-2)[GalNAc(a1-3)]Gal(b1-4)Glc
Method in brief: as §1

[30] = target: Fuc(a1-2)[GalNAc(a1-3)]Gal(b1-4)GlcNAc
Method in brief: as §1

[31] = target: Fuc(a1-2)[GalNAc(a1-3)]Gal(b1-4)[Fuc(a1-3)]GlcNAc
Method in brief: as §1

[32] = target: Fuc(a1-2)[GalNAc(a1-4)]Gal(b1-4)GlcNAc
Method in brief: as §1

[33] = target: Fuc(a1-2)[GalNAc(b1-3)]Gal
Method in brief: as §1

[34] = target: Fuc(a1-3)GlcNAc
Method in brief: as §1

[35] = target: Fuc(a1-3)[Gal(b1-4)]GlcNAc
Method in brief: as §1

[36] = target: Fuc(a1-3)[Gal(b1-4)]GlcNAc(b1-4)Gal(b1-4)[Fuc(a1-3)]GlcNAc
Method in brief: as §1

[37] = target: Fuc(a1-3)[Gal(b1-4)]GlcNAc(b1-4)Gal(b1-4)[Fuc(a1-3)]GlcNAc(b1-4)Gal(b1-4)[Fuc(a1-3)]GlcNAc
Method in brief: as §1

[38] = target: Fuc(a1-3)[Gal3S(b1-4)]GlcNAc
Method in brief: as §1

[39] = target: Fuc(a1-3)[GalNAc(b1-4)]Gal(b1-4)GlcNAc
Method in brief: as §1

[40] = target: Fuc(a1-3)[GalNAc(b1-4)]GlcNAc
Method in brief: as §1

[41] = target: Fuc(a1-4)GlcNAc
Method in brief: as §1

[42] = target: Fuc(b1-3)GlcNAc
Method in brief: as §1

[43] = target: Gal(a1-2)Gal
Method in brief: as §1

[44] = target: Gal(a1-3)Gal
Method in brief: as §1

[45] = target: Gal(a1-3)Gal(b1-3)Glc
Method in brief: as §1

B1: T7P4 (Tuber borchii) (protein)
chain: GSHIGPYMSFYASSEDVRTIEEGGRTWLVGRARRADGSWQDIKLDLDNIIGNRDGHLTWGEQNFTQSASDIRFNFEGSNVPVLRAKLRNAAGGEQESDLNLGERLTNNNGDLVFN
- glycan array binding signal (z-score) [1]: -0.218
- glycan array binding signal (z-score) [2]: -0.208
- glycan array binding signal (z-score) [3]: -0.209
- glycan array binding signal (z-score) [4]: -0.076
- glycan array binding signal (z-score) [5]: 6.04
- glycan array binding signal (z-score) [6]: -0.22
- glycan array binding signal (z-score) [7]: -0.183
- glycan array binding signal (z-score) [8]: 5.88
- glycan array binding signal (z-score) [9]: -0.218
- glycan array binding signal (z-score) [10]: -0.222
- glycan array binding signal (z-score) [11]: -0.207
- glycan array binding signal (z-score) [12]: -0.191
- glycan array binding signal (z-score) [13]: -0.209
- glycan array binding signal (z-score) [14]: -0.212
- glycan array binding signal (z-score) [15]: -0.213
- glycan array binding signal (z-score) [16]: -0.219
- glycan array binding signal (z-score) [17]: -0.212
- glycan array binding signal (z-score) [18]: -0.213
- glycan array binding signal (z-score) [19]: -0.215
- glycan array binding signal (z-score) [20]: -0.218
- glycan array binding signal (z-score) [21]: -0.22
- glycan array binding signal (z-score) [22]: -0.121
- glycan array binding signal (z-score) [23]: -0.221
- glycan array binding signal (z-score) [24]: -0.214
- glycan array binding signal (z-score) [25]: -0.078
- glycan array binding signal (z-score) [26]: -0.082
- glycan array binding signal (z-score) [27]: 0.011
- glycan array binding signal (z-score) [28]: -0.222
- glycan array binding signal (z-score) [29]: -0.128
- glycan array binding signal (z-score) [30]: -0.211
- glycan array binding signal (z-score) [31]: -0.22
- glycan array binding signal (z-score) [32]: -0.22
- glycan array binding signal (z-score) [33]: -0.169
- glycan array binding signal (z-score) [34]: -0.027
- glycan array binding signal (z-score) [35]: -0.179
- glycan array binding signal (z-score) [36]: -0.02
- glycan array binding signal (z-score) [37]: -0.198
- glycan array binding signal (z-score) [38]: -0.217
- glycan array binding signal (z-score) [39]: -0.022
- glycan array binding signal (z-score) [40]: -0.027
- glycan array binding signal (z-score) [41]: -0.222
- glycan array binding signal (z-score) [42]: -0.115
- glycan array binding signal (z-score) [43]: -0.218
- glycan array binding signal (z-score) [44]: -0.214
- glycan array binding signal (z-score) [45]: -0.222
